Experimental data: PubChem BioAssay AID1963576 (National Center for Advancing Translational Sciences (NCATS), 2024)
In all, about 46,000 compounds went through this assay and about 60 (0.1%) were called active. Roughly 3% stayed inconclusive and do not appear here. Calls follow the shape of the dose curve; as a rule, active = well fitted inhibition curve with a large enough effect; inconclusive = small, poorly fitted or top-dose-only effect; inactive = no such curve, though single readings can be large or run the other way. This is one part of the list.

experiment: Primary qHTS assay for Inhibitors of ovarian cancer metastasis using an organotypic tumor microenvironment (TME) model.; also: nearly all actives have a fitted effect of over 65% in size;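 as to activity change, negative = inhibition: plate controls were DMSO wells for no effect and tomatine positive control wells for full effect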; conditions: SKOV3ip1-GFP adhesion/invasion on 3D omental model, fluorescence; series mostly up to 45.8 µM; activity change, negative = inhibition: at the top concentration
In short: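 A 3D layer of primary human omental fibroblasts, mesothelial cells, fibronectin and collagen I, grown 48 hr, received SKOV3ip1-GFP cells in serum-free medium plus compounds at 0.36-46 umol/L. After 2 hr RT and 16 hr 37 C, fixed adherent GFP cells were counted; normalized to DMSO and tomatine.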

Structure (SMILES) | outcome | activity change, negative = inhibition
COc1ccc(N(C(=O)c2ccc(C(C)(C)C)cc2)S(=O)(=O)c2ccc(Cl)cc2)cc1 | inactive | –
CCN1C(=O)c2ccccc2Sc2ccc(NC(=O)Nc3cccc([N+](=O)[O-])c3C)cc21 | – | inactive: 10.2%
CCC1=C(c2ccc(C)cc2)S(=O)(=O)N=C1N1CCC(C(=O)NCc2ccc(N(C)C)cc2)CC1 | – | inactive: 4.88%
O=C(NCCc1csc2nc(-c3ccccc3F)nn12)C(=O)Nc1cc(F)ccc1F | – | inactive: -0.89%
O=C(NCCCN1CCN(c2cccc(Cl)c2)CC1)c1cnn(-c2ccc(F)cc2)c1-n1cccc1 | inactive | –
CCOC(=O)c1c(C)oc2ncnc(Nc3cc(C)cc(C)c3)c12 | – | inactive: 3.4%
CCCCOc1ccc(C(=O)NCc2nnnn2-c2ccc(C)c(C)c2)cc1 | – | inactive: 4.37%
COC(=O)c1c(NC(=O)/C(C#N)=C/c2ccccc2)sc2c1C(C(=O)OC)CC2 (configuration not stated) | – | inactive: 2.55%
CCc1ccccc1Nc1sc(C(=O)c2cccc(OC)c2)c(N)c1S(=O)(=O)c1ccccc1 | – | inactive: -5.76%
CC1CCCN(C(=O)Cn2ncc3c([nH]c4ccccc43)c2=O)C1 (configuration not stated) | – | inactive: 5.17%
COc1ccc(C2c3c(n(C)c4ccccc34)C(=O)N2CC(=O)Nc2cccc(Cl)c2C)cc1 (configuration not stated) | inactive | –
Cc1cccc(N2CCN(C(=O)c3cnc(N4CCCC4)nc3C)CC2)c1C | – | inactive: -3.5%
Cc1ccccc1OCC(=O)N1CCC(c2nc3ccccc3s2)CC1 | – | inactive: -6.96%
COc1ccc(OCc2ccc(-c3nc(C#N)c(N4CCCCC4)o3)o2)cc1 | – | inactive: -6.52%
CCOC(=O)N1CCc2c(sc3c2c(=O)n(-c2ccc(CC)cc2)c(=O)n3C)C1 | – | inactive: -16.7%
CCCSc1ncc(Cl)c(C(=O)N(Cc2ccc(Cl)cc2)Cc2ccco2)n1 | inactive | –
CCc1ccccc1NC(=O)Cn1c(=O)ccc2cc(S(=O)(=O)N3CCCC3)ccc21 | – | inactive: 63%
CCC(C(=O)O)n1ccc2cc(S(=O)(=O)N3CCCCC3)ccc21 (configuration not stated) | – | inactive: 3.46%
CCC1CCCCN1S(=O)(=O)c1cc2c3c(c1)CC(=O)N3CCC2 (configuration not stated) | inactive | –
CCOC(=O)c1c(C)[nH]c(C)c1S(=O)(=O)N1CCC(C(=O)NCc2cccc(OC)c2)CC1 | – | inactive: -9.02%
COc1ccc(S(=O)(=O)N2Cc3ccccc3CC2C(=O)Nc2ccc(C)cc2C)cc1OC (configuration not stated) | – | inactive: -1.88%
Cc1ccc(NC(=O)Cn2nc(N3CCN(c4ccccc4)CC3)ccc2=O)cc1F | – | inactive: 3.23%
COc1ccc(-n2c(=O)c3sc4ccccc4c3n(Cc3ccccc3C)c2=O)cc1OC | – | inactive: 46.5%
Cc1c(C(=O)N(C)C)sc2c1c(=O)n(-c1ccc(Cl)cc1)c(=O)n2CC(=O)C(C)(C)C | inactive | –

Structure (SMILES) | outcome | activity change, negative = inhibition
COc1ccc(C(=O)c2c(N)c(C(=O)Nc3cccc(OC)c3)c3ccccn23)cc1 | – | inactive: 2.39%
CCOc1ccc(C2=CC(c3cccc(Br)c3)n3c(nc4ccccc43)N2)cc1Cl (configuration not stated) | – | inactive: 0.867%
Cc1cc(C)cc(-n2c(C)nc3cc(C(=O)O)ccc32)c1 | – | inactive: -3.35%
Cc1cc(NC(=O)c2cc(-c3cccc(Cl)c3)on2)n(-c2ccccc2)n1 | inactive | –
COc1ccc(-c2noc(-c3ccc(NCc4cccnc4)c([N+](=O)[O-])c3)n2)cc1OC | inactive | –
Cc1cc(C)c(S(=O)(=O)NCCc2cc3ccc(C)c(C)c3[nH]c2=O)c(C)c1 | – | inactive: -16.6%
CC(=O)c1ccc(NC(=O)CCc2c(C)nn(-c3ccc(N4CCOCC4)nn3)c2C)cc1 | inactive | –
O=c1c2sc3ccccc3c2n(Cc2cccc(Cl)c2)c(=O)n1Cc1ccco1 | inactive | –
Cc1ccc(N2CCN(C(=O)C3CCN(S(=O)(=O)c4ccc5c(c4)oc(=O)n5C)CC3)CC2C)cc1 (configuration not stated) | inactive | –
Cc1cccc(OCc2nc(CC(=O)Nc3ccc(C)c(C)c3)cs2)c1 | – | inactive: -1.9%
CCOc1ccc(NC(=O)C2CCN(C(=O)N3CC(C)Oc4ccc(Cl)cc43)CC2)cc1 (configuration not stated) | – | inactive: -1.63%
COc1cc(-c2cc3n(C)c(C)c(CCC(=O)O)c(=O)n3n2)cc(OC)c1OC | – | inactive: -19.1%
CCCn1c(CN2CCN(c3ccc(OC)cc3)CC2)nc2c1c(=O)[nH]c(=O)n2C | inactive | –
Cc1ccc(CNC(=O)CCC(=O)N2CC3CCCN3c3ccccc32)cc1 (configuration not stated) | – | inactive: 0.0577%
Cc1cc2oc(C(=O)Nc3ccc(S(=O)(=O)N(C)Cc4ccccc4)cc3)cc(=O)c2cc1C | – | inactive: 0.963%
CC(C)CC(=O)Nc1nnc(S(=O)(=O)N(CC(C)C)c2ccccc2)s1 | inactive | –
Cc1c(CNC2CCCCC2)c(C(=O)O)c(C)n1Cc1c(F)cccc1Cl | – | inactive: 8.83%
Cc1ccc(NC(=O)CCCn2c(=O)c3cccn3c3ccccc32)c(Cl)c1 | – | inactive: 7.31%
COc1ccccc1N1CCN(c2ccc(NC(=O)c3ccc(C)cc3)cc2C(=O)O)CC1 | – | inactive: 10%
COc1cc(OC)c(NC(=O)c2csc3c2CCC(C)C3)cc1Cl (configuration not stated) | – | inactive: 19.8%
CCOc1ccccc1NC(=O)Cn1c(=O)n(CCC(=O)NCc2ccc3c(c2)OCO3)c(=O)c2ccccc21 | – | inactive: -0.566%
COc1ccc(CCNC(=O)CCc2c(C)nc3c(c(C)nn3-c3ccc(C)c(C)c3)c2C)cc1OC | – | inactive: 74.3%
COc1ccccc1CNC(=O)c1cc2cc3ccc(Cl)cc3nc2o1 | – | inactive: -1.32%
